# Assay results taken from the supplement of paper PMC12355420.
# Where a name gives a salt, the structure may show the parent alone. Some of the results follow. Most values come without repeats; read them as rough.
# Tested on: HeLa VPS33A KO + NLuc-VPS33A R498W
# Experiment: relative mutant VPS33A R498W amount (NanoLuc luminescence) vs DMSO (fraction of DMSO); HeLa model of a glycosaminoglycan (GAG) storage disease; KI is knock-in and KO knock-out; SDC1 is syndecan 1; higher = higher mutant VPS33A level
# Conditions: 50 µM; 24 h
# 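Further: screen of an FDA-approved drug library, NanoLuc luminescence read after lysing the treated cells, taken as a measure of mutant VPS33A protein stability.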
row,SMILES,relative mutant VPS33A R498W amount
1,COc1cc2nc(N(C)CCCNC(=O)C3CCCO3)nc(N)c2cc1OC (stereo not given) [Alfuzosin HCl],1.63
2,CN(CCOc1ccc(NS(C)(=O)=O)cc1)CCc1ccc(NS(C)(=O)=O)cc1 [Dofetilide],0.865
3,CN(C(=O)c1ccc(F)cc1C(F)(F)F)C1CCN(c2nnc(-c3ccnn3C)c3ccccc23)CC1,0.4
4,C[C@@H]1C[C@H]2[C@@H]3CCC4=CC(=O)C=C[C@]4(C)[C@@]3(Cl)[C@@H](O)C[C@]2(C)[C@@]1(OC(=O)c1ccco1)C(=O)CCl [Mometasone furoate],1.89
5,CC1(C)S[C@@H]2[C@H](NC(=O)Cc3ccccc3)C(=O)N2[C@H]1C(=O)O [Penicillin G Sodium],1.2
6,O=C(O[C@@H]1Cc2c(O)cc(O)cc2O[C@@H]1c1ccc(O)c(O)c1)c1cc(O)c(O)c(O)c1 [(-)-epicatechin gallate],1.19
7,CC(=O)O[C@H]1C[C@@]2(C)[C@@H](C[C@@H](O)[C@H]3[C@@]4(C)CC[C@@H](O)[C@@H](C)[C@@H]4CC[C@@]32C)/C1=C(\CCC=C(C)C)C(=O)O [Fusidic Acid (sodium salt)],0.426
8,CC(=O)NO [Acetohydroxamic Acid],0.799
9,CC[C@H](C)C(=O)O[C@H]1C[C@H](O)C=C2C=C[C@H](C)[C@H](CC[C@@H](O)C[C@@H](O)CC(=O)O)[C@H]21 [Pravastatin sodium],1.24
10,COc1ccc([C@@H]2Sc3ccccc3N(CCN(C)C)C(=O)[C@@H]2OC(C)=O)cc1 [Diltiazem HCl],0.742
11,O=C(O)P(=O)(O)O [Foscarnet Sodium],0.873
12,CC(C(=O)O)c1ccc2c(c1)[nH]c1ccc(Cl)cc12 (stereo not given) [Carprofen],0.985
13,Cc1c(Nc2ncccc2C(=O)O)cccc1C(F)(F)F [Flunixin Meglumin],1.3
14,CC(C)(C)C(=O)C(Oc1ccc(Cl)cc1)n1ccnc1 (stereo not given) [Climbazole],0.664
15,CN(C)CCCN1c2ccccc2Sc2ccc(Cl)cc21 [Chlorpromazine HCl],0.278
16,Cc1ccsc1C(=CCCN1CCC[C@@H](C(=O)O)C1)c1sccc1C [Tiagabine hydrochloride],1.02
17,Nc1ncnc2c1ncn2[C@@H]1O[C@H](COP(=O)(O)OP(=O)(O)O)[C@@H](O)[C@H]1O [Adenosine-5'-diphosphate],2.18
18,CC1CNc2c(cccc2S(=O)(=O)N[C@@H](CCCNC(=N)N)C(=O)N2CC[C@@H](C)C[C@@H]2C(=O)O)C1 (stereo not given in full) [Argatroban],0.936
19,Nc1nc2n[nH]nc2c(=O)[nH]1 [Azaguanine-8],9.19
20,C#Cc1cccc(Nc2ncnc3cc(OCCOC)c(OCCOC)cc23)c1 [Erlotinib],0.514
21,CCCCOc1cc(C(=O)OCCN(CC)CC)ccc1N [Oxybuprocaine HCl],1.1
22,Nc1[nH]cnc2ncnc1-2 [Adenine],1.76
23,NC1=NCC2c3ccccc3Cc3ccccc3N12 (stereo not given) [Epinastine HCl],0.76
24,C[N+]1(C)[C@@H]2C[C@@H](OC(=O)C(O)(c3cccs3)c3cccs3)C[C@H]1[C@@H]1O[C@@H]12 [Tiotropium Bromide],1.3
25,O=C(O)/C=C/c1ccc(Cn2ccnc2)cc1 [Ozagrel HCl],1.49
